Results published in PubChem BioAssay AID662 (National Center for Advancing Translational Sciences (NCATS), 2007).
Hit rate of the full screen: of about 71,000 compounds, about 1,800 (2.5%) were called active. The shares of active, inactive and inconclusive entries below differ from those in the screen. Calls follow the shape of the dose curve; as a rule, active = well fitted activation curve with a large enough effect in the signal ratio, with a control signal flat (not every such curve was filed as active); inconclusive = small, poorly fitted or top-dose-only effect, or effect the other way, or a change in a side signal; inactive = flat fitted curve, though single readings scatter; the % refers to the signal ratio. Where the call is inconclusive, the potency comes from a doubtful curve fit.

Experiment: Cell signaling CRE-BLA (Fsk stim); as to activity change, negative = inhibition: % of control where 0% means no effect
Conditions: CHO CRE-bla reporter (cAMP response element driving beta-lactamase), forskolin EC10, beta-lactamase ratio; activity change, negative = inhibition: at 38.2 µM (top of the series) unless noted
In short: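 CHO CRE-bla cells, overnight plating in Opti-MEM with 0.5% dialyzed FBS; cpd titration + EC10 NKH 477, 3 h 37 °C; CCF4 2 h RT; ex 405/em 460 vs 530 ratio → %Activity, AC50.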
Potency is read from the fitted curve at half-maximal effect; tags tell the direction and shape of the fitted curve.

Structure (SMILES) | activity change, negative = inhibition | Potency
Cc1ccc(S(=O)(=O)Nc2cccc(-c3cn4ccsc4n3)c2)cc1 | inconclusive: 24.9% | –
O=C1NC2NC(=O)N(C(Cc3ccccc3)C(=O)O)C2N1 (stereo not drawn) | inconclusive: -2.02% [at 7.6 µM] | –
O=C(C1CCCC1)N(c1ccccc1)C1C=CS(=O)(=O)C1 (stereo not drawn) | inactive: -2.4% | –
CC(C)Sc1nc2c(c(=O)n1-c1ccc(F)cc1)SCC2 | – | inconclusive: 12.6 µM [rising, partial curve]
Cc1nn(-c2ccccc2)c2sc(C(=O)N3CCOCC3)cc12 | – | active: 3.98 µM
CCOC(=O)c1c(N)c(C#N)c2n1CCCCC2 | – | inconclusive: 25.1 µM [rising, single point]
O=S(=O)(CC(CN1CCCC1)N1CCCC1)c1ccc2ccccc2c1 (stereo not drawn) | – | inconclusive: 2 µM [falling, full curve, poor fit]
Cc1cc(C(=O)CSc2nnc(-c3ccc(OC(F)F)cc3)o2)c(C)n1Cc1cccs1 | – | inconclusive: 5.01 µM [falling, single point]
CCn1c(NC(=O)Nc2ccccc2OC)nc2ccccc21 | inconclusive: -14.3% | –
Cc1sc(NC(=O)CSc2nnc3scc(-c4ccccc4)n23)c(C#N)c1C | inactive: 20.2% | –
COc1ccc(-n2c(Cc3cccn3C)nnc2SCC(=O)Nc2cc(Cl)ccc2OC)cc1 | inconclusive: -7.5% [cytotoxic] | –
COc1cc(OC)c(N2CC34C=CC(O3)C(C(=O)O)C4C2=O)cc1Cl (stereo not drawn) | inactive: 6.61% | –
Cc1ccnc2ccc(-c3nc4ccccc4o3)cc12 | inconclusive: 0.586% | –
CCOC(=O)c1[nH]c2c(c1C)C(=O)CC(c1ccc(F)cc1)C2 (stereo not drawn) | – | inconclusive: 2 µM [rising, full curve]
N#CCCn1c(=O)c(-c2ccc(Cl)cc2)nc2cnc(Oc3cccc(Cl)c3)nc21 | – | inconclusive: 3.98 µM [rising, full curve]
CS(=O)(=O)c1ccc(C(=O)NC2CCOC2=O)cc1 (stereo not drawn) | inactive: -9.96% | –
O=C(CSc1nc2sc3c(c2c(=O)n1-c1ccccc1)CCCC3)NCc1ccco1 | inconclusive: 27% | –
CCCCCn1c(N)c(C#N)c2nc3ccccc3nc21 | – | active: 10 µM
CCOc1ccc(NC(=O)CN2CCN(CC(=O)Nc3cccc(F)c3)CC2)cc1 | inconclusive: -27.4% | –
COCCn1c(=O)c(-c2cccc(C#N)c2)nc2cnc(N3CCOCC3)nc21 | – | inconclusive: 1 µM [rising, full curve]
Cc1cc(NC(=O)Nc2ccc(N(C)C)cc2)c2cc(F)cc(F)c2n1 | inactive: 14.4% | –
CC1=C(C#N)C(c2cccnc2)C2=C(CC(C)(C)CC2=O)N1 (stereo not drawn) | inconclusive: 24.6% | –
Cc1ccc(Nc2ncnc3nc[nH]c23)cc1Cl | inconclusive: 6.91% | –
